# Results published in article PMC4336329 (PLoS ONE, 2015).
# About 2,200 (0.71%) of roughly 310,000 compounds showed an effect of 50% or more. The effect is printed as a negative number. The list shows a part of the results.
# Molecular target: human ether-à-go-go-related gene (hERG) potassium channel (human, UniProt Q12809)
# Experiment: primary screen, population patch clamp on CHO cells stably expressing hERG
# Sequence of human ether-à-go-go-related gene (hERG) potassium channel (Q12809 whole entry, looked up): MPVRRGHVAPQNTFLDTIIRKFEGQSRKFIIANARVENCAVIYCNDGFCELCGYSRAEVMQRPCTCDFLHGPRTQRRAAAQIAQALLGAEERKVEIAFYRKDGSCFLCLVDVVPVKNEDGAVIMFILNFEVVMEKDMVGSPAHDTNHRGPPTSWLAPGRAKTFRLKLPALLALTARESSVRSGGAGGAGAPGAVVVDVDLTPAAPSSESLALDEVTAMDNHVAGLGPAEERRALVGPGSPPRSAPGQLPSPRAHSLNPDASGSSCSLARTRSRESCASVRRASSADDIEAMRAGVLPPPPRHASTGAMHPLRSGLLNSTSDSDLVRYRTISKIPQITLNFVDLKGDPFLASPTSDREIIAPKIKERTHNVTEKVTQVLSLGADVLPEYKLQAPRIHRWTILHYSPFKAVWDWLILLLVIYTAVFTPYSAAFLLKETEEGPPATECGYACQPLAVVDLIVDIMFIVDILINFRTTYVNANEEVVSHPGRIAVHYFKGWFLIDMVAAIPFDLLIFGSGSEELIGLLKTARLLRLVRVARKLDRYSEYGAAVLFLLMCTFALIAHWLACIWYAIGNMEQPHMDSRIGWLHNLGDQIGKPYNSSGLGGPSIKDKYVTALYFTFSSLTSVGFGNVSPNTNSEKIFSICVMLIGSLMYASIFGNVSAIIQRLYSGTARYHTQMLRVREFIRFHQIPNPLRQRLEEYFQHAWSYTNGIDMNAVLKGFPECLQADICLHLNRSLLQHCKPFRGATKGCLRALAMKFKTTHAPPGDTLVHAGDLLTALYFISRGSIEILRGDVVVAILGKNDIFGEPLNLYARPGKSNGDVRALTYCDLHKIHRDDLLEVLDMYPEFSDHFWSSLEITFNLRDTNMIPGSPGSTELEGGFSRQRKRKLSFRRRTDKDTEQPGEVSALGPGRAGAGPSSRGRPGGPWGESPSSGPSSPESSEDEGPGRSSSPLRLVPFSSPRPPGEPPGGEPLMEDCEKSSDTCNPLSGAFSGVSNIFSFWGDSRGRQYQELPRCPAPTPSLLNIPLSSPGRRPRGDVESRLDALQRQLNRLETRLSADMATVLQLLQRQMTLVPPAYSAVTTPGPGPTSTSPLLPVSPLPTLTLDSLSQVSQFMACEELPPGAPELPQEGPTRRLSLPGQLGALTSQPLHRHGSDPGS
row,SMILES,"hERG current change (%, negative = inhibition) at 1uM [%]"
1,CCCCCCSc1cc(-c2nc3ccc(C)cn3c2NCc2ccccc2)ccc1OC.O=C(O)C(F)(F)F,17
2,Cc1cccc(Cc2c(C)nc3nc(SCC(=O)O)nn3c2C)c1,16.4
3,Cn1c(=O)n(C)c2cc(S(=O)(=O)N3CCOCC3)ccc21,7.26
4,CC(=O)Nc1ccc(S(=O)(=O)Nc2ccccc2C(=O)N2CCCCCC2)cc1,9.05
5,COC(/C=C/Nc1ccc(C)c(C)c1)=C(C#N)C#N,0.55
6,Oc1c(C=C2N=c3ccccc3=N2)sc(=S)n1-c1ccc(F)cc1 [17505669],5.08
7,Cc1ccc(NC(=O)CS(=O)CC(=O)NCCCc2ccccc2)cc1Cl (stereo not drawn),5.31
8,COc1cccc(N2CCN(C(=O)CCc3nnc4ccc(N5CCOCC5)nn34)CC2)c1,-0.0727
9,COC(=O)c1ccc(NC(=O)NCCCl)cc1,10.3
10,COc1ccc(N2CC(C(=O)N3CCN(c4ccccc4)CC3)CC2=O)cc1 (stereo not drawn),-8.5
11,Cc1c(C(=O)O)[nH]c2c1C(=O)CC(c1ccccc1)C2 (stereo not drawn),9.9
12,CCOc1ccc2[nH]c(C)cc(=O)c2c1,-0.0577
13,O=C(/C=C/c1ccco1)Nc1ccc(CN2CCOCC2)cc1,-17.2
14,O=c1/c(=C/c2ccc([N+](=O)[O-])cc2)sc2n1CCCN=2,-3.34
15,COC(=O)Cn1c(=NC(=O)c2ccc(S(=O)(=O)N3CCOCC3)cc2)sc2cc(S(N)(=O)=O)ccc21,8.39
16,COC(=O)c1sc(-c2ccc(C(C)(C)C)cc2)cc1NC(=O)CCC(=O)O,14.4
17,CC(=O)c1ccc(OCCCC(=O)N2CCN(S(=O)(=O)c3ccc(C(C)C)cc3)CC2)cc1,7.77
18,COc1ccc(C#Cc2c(-c3ccc(OC)cc3)oc3ccc(-c4ccc5c(c4)OCO5)cc23)cc1,7.24
19,Cc1ccc(NC(=S)N(CCC(C)C)C(C)c2ccncc2)c(Cl)c1 (stereo not drawn),10.9
20,CCOC(=O)c1cnc2c(C(F)(F)F)cccc2c1N1CCOCC1,0.0827
21,CC(C)Cn1nc(NC(=O)C(C)(C)C)c2cc3ccccc3nc21,12.1
22,COc1ccc(-c2csc(N(CCCN(C)C)C(=O)c3ccc(C)cc3)n2)cc1.Cl,-17.2

row,SMILES,"hERG current change (%, negative = inhibition) at 1uM [%]"
1,Cc1cccc(CCNC(=O)Cn2ncc3c([nH]c4ccc(C)cc43)c2=O)c1,8.4
2,Cc1cc(C)c2oc(C(=O)Nc3nnc(C(C)C)s3)cc(=O)c2c1,14.7
3,COc1ccccc1NC(=O)CN1C(=O)NC2(CCCc3ccccc32)C1=O (stereo not drawn),7.03
4,O=C(c1cccc(S(=O)(=O)N2CCCCCC2)c1)N1CCN(c2ccccc2)CC1,-11.5
5,O=C(COC(=O)C1CCN(S(=O)(=O)c2cccc3cccnc23)CC1)c1ccc(F)cc1,12.6
6,COC(=O)c1ccccc1NC(=O)c1ccc(NS(C)(=O)=O)cc1,-14.7
7,CSc1sc(-c2nnc(SCC(=O)Nc3ccccc3)n2C)c2c1C=CCC2,-4.8
8,Cn1c2ccccc2c2nnc(SCC(=O)Nc3cccc(O)c3)nc21,-10
9,S=C(NCCc1ccccc1)NN=C1CCCCCC1,17.9
10,CCn1c(=O)[nH]c(=O)c2c(N)c(C(=O)c3ccccc3OC)sc21,2.48
11,Cc1ccc(C(=O)OCC(=O)Nc2sc3c(c2C#N)CCC3)cc1,5.83
12,Cc1ccc(CNC(=O)c2cnccn2)cc1,11.4
13,N/C(=N\OC(=O)c1cccc(C(F)(F)F)c1)c1cnccn1,10.5
14,O=C(CNC(=O)c1cccs1)N/N=C/c1ccc(Cl)cc1,8.95
15,COc1cccc2c3c(c(C)nc12)CC(C)O3 (stereo not drawn),-10
16,O=C(NCc1ccccc1)c1onc(CSc2ccccn2)c1C(=O)NCc1ccccc1,11.7
17,CCNS(=O)(=O)c1ccc(NC(=O)Nc2cccc(C(F)(F)F)c2)cc1,2.43
18,O=C(c1ccc2c(=O)n3c(nc2c1)CCCCC3)N1CCN(c2ccc(F)cc2)CC1,9.38
19,O=C(COC(=O)CNS(=O)(=O)c1ccc(Br)cc1Cl)NC1CC1,12.2
20,O=C(CCn1c(SCC(=O)c2ccccc2)nc2ccccc2c1=O)NCc1ccc(F)cc1,7.58
21,COc1ccc(OC)c(NC(=O)C2COc3ccccc3O2)c1 (stereo not drawn),16.2
22,O=C(Cc1cn(-c2ccccc2)nc1-c1ccccc1)N1CCCCC1,6.11

row,SMILES,"hERG current change (%, negative = inhibition) at 1uM [%]"
1,CN(C)CCCNC(=S)N(CCO)Cc1cc2cc3c(cc2[nH]c1=O)OCO3,12.6
2,CCC1(C)Nc2ccccc2C(=O)N1O (stereo not drawn),6.65
3,COc1ccccc1/C=C/C=N/NC(=O)CCn1nnc2ccccc21,6.98
4,Cn1cnnc1SCC(=O)Nc1ccc2nc(SCc3ccccc3Cl)sc2c1,0.119
5,CCN(Cc1cnn(C)c1)C(=O)c1cc(COc2ccc3c(c2)CCCC3)on1,10.9
6,CC1(c2ccccc2)NC(=O)N(CC(=O)Nc2ccccc2C(=O)N2CCCCC2)C1=O (stereo not drawn),18.1
7,COc1ccccc1OCCC(=O)OCC(=O)c1[nH]c(C)c(C(C)=O)c1C,8.01
8,CCC(=O)Nc1c(-c2ccc(OC)cc2)c(=O)c2ccccc2n1C,3.08
9,O=C(NCC(=O)N1CCC2(CC1)NCCc1[nH]cnc12)c1ccccc1F,9.99
10,COCCOC(=O)c1[nH]c2c(c1C)C(=O)CC(c1ccc(N(C)C)cc1)C2 (stereo not drawn),10.5
11,CN(CCOc1ccccc1)C(=O)c1cc(COc2c(F)cccc2F)on1,5.18
12,COc1ccc(CCNCc2cc(C)n(-c3ccc(OC)cc3)c2C)cc1.O=C(O)C(=O)O,7.58
13,Cc1ccc(CN2CCC(n3nccc3NC(=O)c3ccc4c(c3)OCO4)CC2)o1,-6.38
14,COc1c(C)cc(C(=O)C2CCCN(C(=O)c3cc(C)on3)C2)cc1C (stereo not drawn),14
15,CC(C)c1nnc(NC(=O)CCC(=O)N2CCN(C3c4ccccc4-c4ccccc43)CC2)s1,13.8
16,Cc1cccc(NC(=O)c2ccccc2C(=O)Nc2cccc(C)c2)c1,4.17
17,CC1=C([N+](=O)[O-])C(c2ccc3c(c2)OCO3)N(C)C(=O)N1C (stereo not drawn),9.01
18,CCOC(=O)C1=C(N)OC2=C(C(=O)CC(C)(C)C2)C1c1ccc(C)s1 (stereo not drawn),-8.76
19,O=C(COc1ccc(F)cc1Br)NCc1ccccn1,2.26
20,COc1cccc(OC)c1C(=O)NC(=S)NCc1ccccc1,15.4
21,O=C(Nc1cccc(S(=O)(=O)NC2=NCCC2)c1)c1ccc(=O)[nH]c1,11.4
22,Cc1ccc(C(=O)N/C(=C\c2ccco2)C(=O)NCCc2c[nH]c3ccccc23)cc1,-12.2

row,SMILES,"hERG current change (%, negative = inhibition) at 1uM [%]"
1,CC(C)Oc1ccccc1OCCCOc1cccc2cccnc12,4.95
2,CC(=O)Nc1cccc(NC(=O)CSc2nccn2Cc2ccccc2)c1,14.4
3,COc1ccc(CN2CCC(n3nccc3NC(=O)C3CC3)CC2)cc1O,-18.7
4,O=S(=O)(NCCSc1ccccc1)c1cccs1,0.375
5,COc1ccc(C(NC(=O)CC(C)C)NC(=O)CC(C)C)cc1OC,-0.242
6,C=CCCC(=O)NC1CCCc2c1cnn2-c1ccccc1F (stereo not drawn),18.1
7,O=C(O)c1cccc(S(=O)(=O)NCc2cccs2)c1,2.21
8,COC1=C(Nc2ccccc2OC)C(=O)c2ccccc2C1=O,13.4
9,O=C(Oc1ccc2ccccc2c1Cl)N1CCCCCC1,16.9
10,O=Cc1ccnc(-c2ccc(OC(=O)c3ccco3)cc2)n1,5.69
11,COc1ccc(N(CC(=O)Nc2ccc(Cl)cc2)S(=O)(=O)c2c(C)n[nH]c2C)cc1,6.63
12,O=C(O)CCNS(=O)(=O)c1ccccc1C(F)(F)F,14
13,CCOC(=O)N(NC(=O)C(O)(CC(C)C)CC(C)C)c1ccccc1,6.37
14,O=C(Cn1c(=O)oc2ccccc21)Nc1ccc(F)cc1,15.5
15,Cc1cccc(C(=O)N[C@H](C(=O)Nc2ccc(C)c(S(=O)(=O)N(C)C)c2)C(C)C)c1,21.2
16,COc1ccc(/C=N\NC(=S)SCN2C(=O)C3CCC(C)(C2=O)C3(C)C)cc1 (stereo not drawn),16.6
17,O=C(Nc1cccc(-c2csc(Nc3cccc(C(F)(F)F)c3)n2)c1)c1ccccc1,-4.15
18,COc1ccc(C(=O)Cn2nnc(-c3cccs3)n2)cc1,3.41
19,CC(C)CCn1nnnc1C(c1ccc(N(C)C)cc1)N1CCN(C(=O)c2ccco2)CC1 (stereo not drawn),-3.51
20,CN(CC#CCN1CCCC1)C(=O)c1cccc(Cl)c1,7.28
21,O=C(c1cc(-c2ccccc2Cl)nc2ccccc12)N1CCC1,9.92
